The whole screen tested about 360,000 compounds, of which about 6,000 (1.7%) were called active. Inconclusive results, whose numbers are uncertain, are shown with a selection of clear calls. Calls follow the shape of the dose curve; as a rule, active = well fitted cell-killing curve with a large enough effect; inconclusive = small, poorly fitted or top-dose-only effect, or effect the other way; inactive = flat fitted curve, though single readings scatter. No potency is given beside an inconclusive call; the fits are too rough.
Test: qHTS for induction of synthetic lethality in tumor cells producing 2HG: qHTS for the HT-1080-NT fibrosarcoma cell line;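 also: NT is the 2HG producing partner of a matched IDH1 knockdown line; nearly all actives have a fitted effect of over 55% in size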;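 as to activity, negative = less viability: 0% = DMSO-treated cells and -100% = media-only wells without cells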
Settings: HT-1080-NT fibrosarcoma viability, CellTiter-Glo ATP luminescence, 48 h; activity, negative = less viability: at 46.1 µM (top of the series) unless noted
Outline: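 Read-out is CellTiter-Glo luminescence after 10 minutes at room temperature, following 48 hours' compound treatment of HT-1080-NT cells (750 cells/well, RPMI, 5% FBS, 37 degrees C).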
Potency is read from the fitted curve at half-maximal effect; tags tell the direction and shape of the fitted curve.

Row | SMILES | Potency | activity, negative = less viability
1 | CCN(CC(=O)Nc1cc(Cl)ccc1C)C(=O)C1CCN(c2ncnc3sc(C)c(C)c23)CC1 | inconclusive [cytotoxic, single point] | –
2 | C=CCC[C@@H](CCCCC)OC(=O)/C=C/[C@H](O)[C@@H](O)C[C@H](O)CC=C | inconclusive [cytotoxic, single point] | –
3 | C(=N\Nc1nc(Nc2ccccc2)nc(N2CCOCC2)n1)/c1c[nH]c2ccccc12 | inconclusive [cytotoxic, partial curve] | –
4 | O=C(c1cccc(Cl)c1)N1CCC(=O)N([C@H](COCc2cccc(Cl)c2)Cc2ccccc2)CC1 | inconclusive [cytotoxic, single point] | –
5 | O=C(CSc1nnnn1-c1ccccc1)CC(=O)Nc1ccc(Cl)cc1 | inconclusive [cytotoxic, single point] | –
6 | Cc1cccc(C)c1NC(=O)C(c1ccc(C(F)(F)F)cc1)n1c(=O)c(-c2cc3ccccc3[nH]2)nc2ccccc21 (stereo not drawn) | inconclusive [cytotoxic, single point] | –
7 | Oc1ccc(/C=N/Nc2cc(N3CCOCC3)nc(N3CCOCC3)n2)cc1 | inconclusive [cytotoxic, single point] | –
8 | Cc1ccccc1C1c2[nH]c3ccccc3c2CCN1C(=O)c1ccc(=O)n(C)n1 (stereo not drawn) | inconclusive [cytotoxic, partial curve] | –
9 | C=C(C)COc1ccc(-c2ncnc(C(F)(F)F)c2-c2ccccc2)c(O)c1 | inconclusive [cytotoxic, single point] | –
10 | CCC(C)(C)c1ccc(OCCCC[n+]2cccc(C)c2)c(C(C)(C)CC)c1 | active: 6.51 µM | –
11 | Cc1cc(C)n2c(Nc3ccc4c(c3)OCCO4)c(-c3cc4ccccc4o3)nc2n1 | – | inactive: -8.25%
12 | COc1ccccc1NS(=O)(=O)c1cccc(C(=O)N/N=C/c2cn(-c3ccccc3)nc2-c2ccccc2)c1 | – | inconclusive: -8.44% [cytotoxic]
13 | CCOc1ccc(C(c2c(NC(=O)c3ccccc3)sc(C)c2C)N2CCN(C)CC2)cc1 (stereo not drawn) | inconclusive [cytotoxic, single point] | –
14 | Cc1ccc(S(=O)(=O)N2C(=O)[C@@H]3Cc4ccccc4CN3C2=O)cc1 | inconclusive [rising, partial curve] | –
15 | CS(=O)(=O)N1N=C(c2cccs2)CC1c1ccco1 (stereo not drawn) | – | inactive: -3.35%
16 | O=C(/C=C/c1ccc([N+](=O)[O-])s1)N1CCCCC1 | inconclusive [cytotoxic, partial curve] | –
17 | CCOc1ccc(-n2nnnc2SCC(=O)Nc2ccc(NC(C)=O)cc2)cc1 | inconclusive [cytotoxic, single point] | –
18 | COc1cc(-c2nc3ccc4ccccc4c3c3c2CCC3)cc(OC)c1OC | inconclusive [cytotoxic, single point] | –
19 | CCNC(=O)C1(C)CCN(C(=O)c2cccnc2SC)C1 (stereo not drawn) | inconclusive [rising, single point] | –
20 | COc1ccc(NS(=O)(=O)c2ccc(-c3cnc(C4CC4)o3)cc2)cc1OC | active: 14.6 µM | –
21 | COc1ccccc1C(NC(=O)C1CCN(CCOc2ccc3ccccc3c2)CC1)c1ccccn1 (stereo not drawn) | active: 18.4 µM | –
22 | COc1cccc(CN(C)C(=O)c2cccc(S(=O)(=O)N3CCN(Cc4ccccc4)CC3)c2)c1OC | inconclusive [cytotoxic, single point] | –
23 | COc1cc2ccccc2cc1C(=O)NCc1ccncc1 | inconclusive [rising, partial curve] | –

Row | SMILES | Potency | activity, negative = less viability
24 | CC(C(=O)c1ccc(Br)cc1)[n+]1cccc(NC(=O)c2ccccc2)c1 (stereo not drawn) | – | inactive: 1.1%
25 | CCCc1cc(=O)oc2c3c(c4c(c12)OC(C)(C)C=C4)OC(C)C(C)C3O (stereo not drawn) | active: 5.8 µM | –
26 | COCCN(CC(=O)NC1CCCCC1)C(=O)/C=C/C(=O)c1ccc(OC)cc1O | active: 23.1 µM | –
27 | N=c1c2ccccc2nnn1-c1cccc(C(F)(F)F)c1 | inconclusive [rising, partial curve] | –
28 | CN(Cc1ccc(Cl)cc1)C(c1cc2ccccc2o1)c1nnnn1C(C)(C)C (stereo not drawn) | – | inactive: -17.9%
29 | CCCCCc1c(-c2ccc(Br)cc2)ncn1CCc1ccccc1OC | active: 16.4 µM | –
30 | CCCCc1ccc(NC2=NCC(=O)N2CCc2ccccc2)cc1 | inconclusive [cytotoxic, single point] | –
31 | Cc1ccc(CN(C)C(=O)c2cccc(S(=O)(=O)N3CCc4ccccc43)c2)cc1 | inconclusive [cytotoxic, single point] | –
32 | CC1CCCCC1NC(=O)NC(=O)COC(=O)c1nccnc1N (stereo not drawn) | – | inactive: 8.75%
33 | Cn1cc(C(=O)c2ccc(Cl)cc2)cc1-c1nc2ccccc2n1C | inconclusive [cytotoxic, single point] | –
34 | COc1cccc(CNC(=O)C2(C)Oc3ccccc3NC2=O)c1 (stereo not drawn) | – | inactive: 0.373%
35 | C(=N\Nc1nc2ccccc2s1)/c1ccccn1 | inconclusive [cytotoxic, partial curve] | –
36 | O=S(=O)(c1ccccc1)N1CCC(O)(CSc2ccc(Cl)cc2)CC1 | inconclusive [cytotoxic, full curve] | –
37 | CCN(CC)C(=O)C1=C(C)N(CCC2=CCCCC2)C(=O)C(CC(=O)NCc2cccc3ccccc23)C1 (stereo not drawn) | inconclusive [cytotoxic, single point] | –
38 | COc1ccc(N2C(=O)/C(=C/c3ccc([N+](=O)[O-])cc3)N=C2C)cc1 | – | inactive: 1.61%
39 | Cc1cc(C)cc(NC(=O)CCNC(=O)c2ccc([N+](=O)[O-])cc2)c1 | inconclusive [cytotoxic, single point] | –
40 | C/C(=C\C(=O)OCCCCCCCCC(=O)O)C[C@@H]1OC[C@H](C[C@@H]2O[C@H]2[C@@H](C)[C@H](C)O)[C@@H](O)[C@H]1O | inconclusive [cytotoxic, full curve, poor fit] | –
41 | O=C(/C=C/c1ccco1)N1CCc2ccccc21 | inconclusive [cytotoxic, partial curve] | –
42 | CCOc1ccc(NC(=S)c2ccncc2)cc1 | inconclusive [rising, single point] | –
43 | COc1ccc(CC(=O)Nc2nnc(C(C)C)s2)cc1OC | inconclusive [rising, single point] | –
44 | CCOC(=O)CC(=O)CSc1ncnc2c1nnn2-c1ccc(OC)cc1 | – | inactive: 4.8%
45 | Cc1cc(N/N=C/c2ccc(O)cc2)c2cccc(C)c2n1 | inconclusive [cytotoxic, single point] | –
46 | N#C/C(=C\c1ccc(O)c(O)c1)C(=O)NCCCc1ccccc1 | inconclusive [cytotoxic, partial curve] | –

Row | SMILES | Potency | activity, negative = less viability
47 | COc1ccc([N+](=O)[O-])c(C=CC(=O)c2ccccn2)c1 | inconclusive [cytotoxic, single point] | –
48 | Cn1nnnc1SCC(=O)Nc1cc(C(=O)O)cc(C(=O)O)c1 | – | inactive: 1.53%
49 | N#CCc1ccc(OCCCN2CCC(C(O)(c3ccccc3)c3ccccc3)CC2)cc1 | active: 20.6 µM | –
50 | COc1cc(NC(=O)COc2ccccc2Cl)ccc1NC(=O)C(C)C | inconclusive [rising, partial curve] | –
51 | Cc1cn(-c2cc(C(=O)Nc3ccc(C)c(NC(=O)C(=O)c4c[nH]c5ccccc45)c3)cc(C(F)(F)F)c2)cn1 | inconclusive [cytotoxic, single point] | –
52 | CC1CCCN(S(=O)(=O)c2ccc3[nH]c4c(c3c2)CCCC4)C1 (stereo not drawn) | inconclusive [cytotoxic, single point] | –
53 | CC(=O)N1c2ccc(S(=O)(=O)NCCC(=O)N3CCC(C)CC3)cc2CC1C (stereo not drawn) | – | inactive: 16.7%
54 | CCc1ccc(/C=N/NC(=O)c2c[nH]c3ccccc23)s1 | – | inactive: -5.13%
55 | COC(CNC(=O)C(=O)NCC1CCCN1S(=O)(=O)c1cccs1)OC (stereo not drawn) | – | inactive: 0.875%
56 | O=C(Nc1nc(-c2ccccc2)cs1)C1CCCCN1S(=O)(=O)c1ccc(Cl)cc1 (stereo not drawn) | inconclusive [cytotoxic, single point] | –
57 | O=C(Cc1ccccc1)NCC(=O)OCc1ccccc1F | – | inactive: 7.29%
58 | CCN1C(=O)CCN(C2CCCC2)c2nc(Nc3ccc(C(=O)NC4CCN(C)CC4)cc3OC)ncc21 | inconclusive [cytotoxic, single point] | –
59 | CCn1c2ccccc2c2cc(NC(=O)CSc3nnc(-c4ccccc4)o3)ccc21 | inconclusive [cytotoxic, single point] | –
60 | COCCNc1ccc([N+](=O)[O-])cc1C(=O)NC1CCCc2ccccc21 (stereo not drawn) | – | inconclusive: -18.8% [cytotoxic]
61 | CCCN1CCN(C(=O)C2CCN(S(=O)(=O)c3c(C)noc3/C=C/c3ccc(C)cc3)CC2)CC1 | active: 16.4 µM | –
62 | O=C(NC(c1ccc(Cl)cc1)c1cnccn1)C1CCN(CCCc2ccccc2)CC1 (stereo not drawn) | – | inconclusive: -30% [cytotoxic]
63 | COCCNC(=O)C1(C)CCCN(C(=O)c2cnc3ccccc3n2)C1 (stereo not drawn) | inconclusive [rising, partial curve] | –
64 | CCOCC(=O)NC1CCc2cc(OC(=O)COCC)c(OC)c(OC)c2-c2ccc(SC)c(=O)cc21 (stereo not drawn) | active: 0.0731 µM | –
65 | CN(C)c1cc[n+](CC(=O)c2ccc(-c3ccccc3)cc2)cc1 | active: 8.2 µM | –
66 | Cc1ccc(CC2S/C(=C(/C#N)C(=O)NCc3ccco3)N(c3ccccc3)C2=O)cc1 (stereo not drawn) | inconclusive [cytotoxic, single point] | –
67 | CCOc1ccc(CCNC(=O)COC(=O)/C=C/c2ccccc2OC)cc1OCC | – | inactive: 1.04%
68 | O=C1NC(c2ccccc2)=C(c2nc3ccccc3s2)C(c2ccc(F)cc2)N1 (stereo not drawn) | inconclusive [cytotoxic, single point] | –

From PubChem BioAssay AID686970 (National Center for Advancing Translational Sciences (NCATS), 2013)
